# The supplement of paper PMC8728848
# This is one part of the list.
# B1: HA-11100 (Pseudomonas aeruginosa), Q02G51_PSEAB (protein)
# chain: QFNPNEIKISQQGKTTLIDQSTQRAIINWKGFDVSADEAVRFNQPGVTSSTLNRVTAGQESVIAGRISAPGQVIIYNSNGVVFSGSAKVDVGSLITTTANISDEHFRQGKLIFDQPGNPDARIVNDGSISVAEKGLAAFVAPSVANNGVINARLGTVAMAAGNAATIDLYG
# Tests used:
# Assay in all cases: glycan array binding signal (z-score within array); higher = stronger binding
# Conditions in all cases: glycan notation: IUPAC condensed, linker removed
# [1] = biological target: Gal(b1-3)GlcNAc(b1-2)Man(a1-3)[Gal(b1-3)GlcNAc(b1-2)Man(a1-6)]Man(b1-4)GlcNAc(b1-4)GlcNAc
# Summary of the method: (§1)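 Glycan array binding is given as a within-array Z-score, which can be read as non-binding when negative. The arrays, 3228 of them, came from the Consortium for Functional Glycomics database and were retained only where the protein sequence was available. Z-scores were averaged across arrays of the same protein sequence at different concentrations or buffers and across linkers.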
# [2] = biological target: Gal(b1-3)GlcNAc(b1-2)Man(a1-3)[Gal(b1-3)GlcNAc(b1-2)Man(a1-6)]Man(b1-4)GlcNAc(b1-4)[Fuc(a1-6)]GlcNAc
# Summary of the method: as §1
# [3] = biological target: Gal(b1-3)GlcNAc(b1-2)Man(a1-3)[GlcNAc(b1-4)][Gal(b1-3)GlcNAc(b1-2)Man(a1-6)]Man(b1-4)GlcNAc(b1-4)GlcNAc
# Summary of the method: as §1
# [4] = biological target: Gal(b1-3)GlcNAc(b1-2)[Gal(b1-3)GlcNAc(b1-6)]Man(a1-6)[Gal(b1-3)GlcNAc(b1-2)Man(a1-3)]Man(b1-4)GlcNAc(b1-4)GlcNAc
# Summary of the method: as §1
# [5] = biological target: Gal(b1-3)GlcNAc(b1-3)Gal(b1-3)GlcNAc
# Summary of the method: as §1
# [6] = biological target: Gal(b1-3)GlcNAc(b1-3)Gal(b1-4)Glc
# Summary of the method: as §1
# [7] = biological target: Gal(b1-3)GlcNAc(b1-3)Gal(b1-4)GlcNAc
# Summary of the method: as §1
# [8] = biological target: Gal(b1-3)GlcNAc(b1-3)Gal(b1-4)GlcNAc(b1-2)Man(a1-3)[Gal(b1-3)GlcNAc(b1-3)Gal(b1-4)GlcNAc(b1-2)Man(a1-6)]Man(b1-4)GlcNAc(b1-4)GlcNAc
# Summary of the method: as §1
# [9] = biological target: Gal(b1-3)GlcNAc(b1-3)Gal(b1-4)GlcNAc(b1-2)[Gal(b1-3)GlcNAc(b1-3)Gal(b1-4)GlcNAc(b1-6)]Man(a1-6)[Gal(b1-3)GlcNAc(b1-3)Gal(b1-4)GlcNAc(b1-2)Man(a1-3)]Man(b1-4)GlcNAc(b1-4)[Fuc(a1-6)]GlcNAc
# Summary of the method: as §1
# [10] = biological target: Gal(b1-3)GlcNAc(b1-3)Gal(b1-4)GlcNAc(b1-3)Gal(b1-4)GlcNAc(b1-2)[Gal(b1-3)GlcNAc(b1-3)Gal(b1-4)GlcNAc(b1-3)Gal(b1-4)GlcNAc(b1-6)]Man(a1-6)[Gal(b1-3)GlcNAc(b1-3)Gal(b1-4)GlcNAc(b1-3)Gal(b1-4)GlcNAc(b1-2)Man(a1-3)]Man(b1-4)GlcNAc(b1-4)[Fuc(a1-6)]GlcNAc
# Summary of the method: as §1
# [11] = biological target: Gal(b1-3)GlcNAc(b1-3)Gal(b1-4)GlcNAc(b1-6)[Gal(b1-3)GlcNAc(b1-3)]Gal(b1-4)Glc
# Summary of the method: as §1
# [12] = biological target: Gal(b1-3)GlcNAc(b1-3)Gal(b1-4)[Fuc(a1-3)]GlcNAc
# Summary of the method: as §1
# [13] = biological target: Gal(b1-3)GlcNAc(b1-3)Gal(b1-4)[Fuc(a1-3)]GlcNAc(b1-6)[Gal(b1-3)GlcNAc(b1-3)]Gal(b1-4)Glc
# Summary of the method: as §1
# [14] = biological target: Gal(b1-3)GlcNAc(b1-3)GalNAc
# Summary of the method: as §1
# [15] = biological target: Gal(b1-3)GlcNAc(b1-6)Gal(b1-4)GlcNAc
# Summary of the method: as §1
# [16] = biological target: Gal(b1-3)GlcNAc(b1-6)GalNAc
# Summary of the method: as §1
# [17] = biological target: Gal(b1-3)GlcNAc(b1-6)[Gal(b1-3)]GalNAc
# Summary of the method: as §1
# Gal(b1-3)GlcNAc6S = biological target: Gal(b1-3)GlcNAc6S
# Summary of the method: as §1
# [18] = biological target: Gal(b1-3)[Fuc(a1-4)]GlcNAc
# Summary of the method: as §1
# [19] = biological target: Gal(b1-3)[Fuc(a1-4)]GlcNAc(b1-2)Man
# Summary of the method: as §1
# [20] = biological target: Gal(b1-3)[Fuc(a1-4)]GlcNAc(b1-2)Man(a1-3)[Gal(b1-3)[Fuc(a1-4)]GlcNAc(b1-2)Man(a1-6)]Man(b1-4)GlcNAc(b1-4)[Fuc(a1-6)]GlcNAc
# Summary of the method: as §1
# [21] = biological target: Gal(b1-3)[Fuc(a1-4)]GlcNAc(b1-3)Gal(b1-3)[Fuc(a1-4)]GlcNAc
# Summary of the method: as §1
# [22] = biological target: Gal(b1-3)[Fuc(a1-4)]GlcNAc(b1-3)Gal(b1-4)[Fuc(a1-3)]GlcNAc
# Summary of the method: as §1
# [23] = biological target: Gal(b1-3)[Fuc(a1-4)]GlcNAc(b1-6)GalNAc
# Summary of the method: as §1
# [24] = biological target: Gal(b1-3)[GlcNAc(b1-6)]GalNAc
# Summary of the method: as §1
# [25] = biological target: Gal(b1-3)[Neu5Ac(a2-6)]GalNAc
# Summary of the method: as §1
# [26] = biological target: Gal(b1-3)[Neu5Ac(a2-6)]GlcNAc(b1-4)Gal(b1-4)Glc
# Summary of the method: as §1
# [27] = biological target: Gal(b1-3)[Neu5Ac(b2-6)]GalNAc
# Summary of the method: as §1
# Gal(b1-4)Gal = biological target: Gal(b1-4)Gal
# Summary of the method: as §1
# [28] = biological target: Gal(b1-4)GalNAc(a1-3)[Fuc(a1-2)]Gal(b1-4)GlcNAc
# Summary of the method: as §1
# [29] = biological target: Gal(b1-4)GalNAc(b1-3)[Fuc(a1-2)]Gal(b1-4)GlcNAc
# Summary of the method: as §1
# Gal(b1-4)Glc = biological target: Gal(b1-4)Glc
# Summary of the method: as §1
# Gal(b1-4)Glc6S = biological target: Gal(b1-4)Glc6S
# Summary of the method: as §1
# Gal(b1-4)GlcNAc = biological target: Gal(b1-4)GlcNAc
# Summary of the method: as §1
# [30] = biological target: Gal(b1-4)GlcNAc(a1-6)Gal(b1-4)GlcNAc
# Summary of the method: as §1
# Gal(b1-4)GlcNAc(b1-2)Man = biological target: Gal(b1-4)GlcNAc(b1-2)Man
# Summary of the method: as §1
# [31] = biological target: Gal(b1-4)GlcNAc(b1-2)Man(a1-3)Man(b1-4)GlcNAc(b1-4)GlcNAc
# Summary of the method: as §1
# [32] = biological target: Gal(b1-4)GlcNAc(b1-2)Man(a1-3)[Gal(b1-4)GlcNAc(b1-2)Man(a1-6)]Man(b1-4)GlcNAc(b1-4)GlcNAc
# Summary of the method: as §1
# [33] = biological target: Gal(b1-4)GlcNAc(b1-2)Man(a1-3)[Gal(b1-4)GlcNAc(b1-2)Man(a1-6)]Man(b1-4)GlcNAc(b1-4)[Fuc(a1-6)]GlcNAc
# Summary of the method: as §1
# [34] = biological target: Gal(b1-4)GlcNAc(b1-2)Man(a1-3)[Gal(b1-4)GlcNAc(b1-2)Man(a1-6)][Gal(b1-4)GlcNAc(b1-4)]Man(b1-4)GlcNAc(b1-4)[Fuc(a1-6)]GlcNAc
# Summary of the method: as §1
# [35] = biological target: Gal(b1-4)GlcNAc(b1-2)Man(a1-3)[Gal(b1-4)GlcNAc(b1-2)Man(a1-6)][GlcNAc(b1-4)]Man(b1-4)GlcNAc(b1-4)[Fuc(a1-6)]GlcNAc
# Summary of the method: as §1
# [36] = biological target: Gal(b1-4)GlcNAc(b1-2)Man(a1-3)[GlcNAc(b1-2)Man(a1-6)]Man(b1-4)GlcNAc(b1-4)GlcNAc
# Summary of the method: as §1
# [37] = biological target: Gal(b1-4)GlcNAc(b1-2)Man(a1-3)[GlcNAc(b1-4)][Gal(b1-4)GlcNAc(b1-2)Man(a1-6)]Man(b1-4)GlcNAc(b1-4)GlcNAc
# Summary of the method: as §1
# [38] = biological target: Gal(b1-4)GlcNAc(b1-2)Man(a1-3)[Man(a1-6)]Man(b1-4)GlcNAc(b1-4)GlcNAc
# Summary of the method: as §1
# [39] = biological target: Gal(b1-4)GlcNAc(b1-2)Man(a1-6)Man(b1-4)GlcNAc(b1-4)GlcNAc
# Summary of the method: as §1
binder,measurement,setting,value
B1,glycan array binding signal (z-score),[1],2.74
same,glycan array binding signal (z-score),[2],1.03
same,glycan array binding signal (z-score),[3],0.437
same,glycan array binding signal (z-score),[4],0.079
same,glycan array binding signal (z-score),[5],-0.603
same,glycan array binding signal (z-score),[6],-0.305
same,glycan array binding signal (z-score),[7],-0.298
same,glycan array binding signal (z-score),[8],-0.053
same,glycan array binding signal (z-score),[9],0.938
same,glycan array binding signal (z-score),[10],0.491
same,glycan array binding signal (z-score),[11],0.224
same,glycan array binding signal (z-score),[12],0.385
same,glycan array binding signal (z-score),[13],-0.157
same,glycan array binding signal (z-score),[14],0.562
same,glycan array binding signal (z-score),[15],-0.289
same,glycan array binding signal (z-score),[16],-0.285
same,glycan array binding signal (z-score),[17],-0.506
same,glycan array binding signal (z-score),Gal(b1-3)GlcNAc6S,-0.63
same,glycan array binding signal (z-score),[18],-0.114
same,glycan array binding signal (z-score),[19],0.084
same,glycan array binding signal (z-score),[20],1.4
same,glycan array binding signal (z-score),[21],0.352
same,glycan array binding signal (z-score),[22],-0.161
same,glycan array binding signal (z-score),[23],0.346
same,glycan array binding signal (z-score),[24],-0.525
same,glycan array binding signal (z-score),[25],-0.444
same,glycan array binding signal (z-score),[26],0.215
same,glycan array binding signal (z-score),[27],-0.442
same,glycan array binding signal (z-score),Gal(b1-4)Gal,0.769
same,glycan array binding signal (z-score),[28],0.117
same,glycan array binding signal (z-score),[29],-0.721
same,glycan array binding signal (z-score),Gal(b1-4)Glc,0.119
same,glycan array binding signal (z-score),Gal(b1-4)Glc6S,-0.493
same,glycan array binding signal (z-score),Gal(b1-4)GlcNAc,-0.135
same,glycan array binding signal (z-score),[30],-0.29
same,glycan array binding signal (z-score),Gal(b1-4)GlcNAc(b1-2)Man,-0.321
same,glycan array binding signal (z-score),[31],-0.53
same,glycan array binding signal (z-score),[32],-0.512
same,glycan array binding signal (z-score),[33],-0.259
same,glycan array binding signal (z-score),[34],-0.299
same,glycan array binding signal (z-score),[35],-0.652
same,glycan array binding signal (z-score),[36],0.056
same,glycan array binding signal (z-score),[37],-0.475
same,glycan array binding signal (z-score),[38],-0.184
same,glycan array binding signal (z-score),[39],-0.113
